Test results taken from the supplement of paper PMC10126150.
Sequences with one replicate were seen in a single cluster, so their values are uncertain.

System: ATP
Test: switch fluorescence ratio, 500 uM ATP over buffer (Cy3 cluster intensity, sum of 5 cycles each) (fold (ratio)); higher = stronger signal-on switching upon ATP binding; sequences stand for … in TCGTCGGCAGCGTCAGATGTGTATAAGAGACAGTTTTTTTTTTTTTTTTTTTTTTTTT…TC
Details: aptamer strand: ATP DNA aptamer (quencher-CACCTGGGGGAGTATTGCGGAGGAAGG + anchor), 100 nM annealed; ATP concentration: 500 uM; one replicate
In short: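 Five buffer/ATP imaging cycles were run on Cy3-labelled switching-strand clusters on a modified Illumina MiSeq flow-cell, with NaOH stripping and re-annealing between cycles. In each cycle, clusters annealed to 100 nM quencher-labelled ATP aptamer were imaged in selection buffer, then after 15 min with 500 uM ATP at 22 °C. Per cluster, the fluorescence ratio is summed target-cycle over summed buffer-cycle Cy3 intensity, averaged per switch-domain sequence. Only clusters within 100-1000 RFU were kept.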
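Further: ATP exposure 15 min at 22 °C before imaging.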

Row | Sequence | switch fluorescence ratio
1 | CGCGGGCCTG | 0.98
2 | TATATGTATG | 1.01
3 | ACTTTGAGTA | 0.953
4 | TCTACACTAT | 1.04
5 | TTCTCATTGT | 0.982
6 | TGTTCTGGTT | 1.02
7 | TGTTTAAGCA | 0.999
8 | TGTGTAGAAA | 1.01
9 | AGACGTAAGC | 1.09
10 | TAACAGCCGA | 1
11 | CATAAGGATG | 0.929
12 | TGGGGACAGG | 0.947
13 | TAGATGCCGC | 0.992
14 | CCGGCATGTG | 1.1
15 | GTGCGAGGGC | 1.02
16 | TGAGAGATGG | 1.04
17 | AAGTAATTCC | 1.13
18 | CGTCGGATGT | 1.02
19 | TCACAATGGG | 1.01
20 | AGAAACAAAT | 0.972
21 | CTAAAATGTG | 1.02
22 | TTTACTGGGT | 1.01
23 | GCCACCGGG | 1.36
24 | CTCAGAAAA | 1.01
25 | ATGTCACGGC | 1.03
26 | CGCTATAACT | 2.47

Row | Sequence | switch fluorescence ratio
27 | GGATGATGGC | 0.893
28 | AAATTAATGG | 1.06
29 | TTAATGACCC | 1.08
30 | GATTCCGAT | 1.02
31 | TAGTCCTTTG | 0.992
32 | AAAGCGGATA | 1.01
33 | CCAATAGCTG | 1.43
34 | CTCGCGCGCA | 1.03
35 | GCTGATTTCA | 1
36 | GCAACTAAGC | 0.943
37 | TTAGGTCAAG | 0.99
38 | GGCTCTGTCG | 1.04
39 | AGCCTATTAC | 1.35
40 | TTACTTTTGG | 0.992
41 | GGCGTGAATA | 1.02
42 | TAATACTTGT | 0.933
43 | GCGGGGAACC | 1.01
44 | GTAGGAATGC | 1.15
45 | AGTTCCAACT | 1.01
46 | AGGTTGCTGT | 0.986
47 | TACAGTGAAT | 1.13
48 | GCATTCGGGG | 1.05
49 | GAGGGAAGCA | 1.03
50 | CAATCACTTT | 0.985
51 | GTGTACAAGG | 0.987
52 | TCGATTTGTG | 1.01

Row | Sequence | switch fluorescence ratio
53 | ATTGCTGATC | 0.985
54 | AGTGCGTTAG | 0.979
55 | AAAACACGGG | 1.04
56 | TCATTGAAAA | 0.987
57 | TCTCCCGTTA | 1.21
58 | GGTCATATGG | 0.997
59 | CATAACACTT | 1.09
60 | TGGTACGCGT | 1.03
61 | TAGGAGGTG | 1.09
62 | TTTCCATGA | 1.02
63 | ACAGGTAGCA | 1.03
64 | CTATAGGCGT | 0.992
65 | TTGTTTAATG | 0.962
66 | CATTAGGAGT | 0.985
67 | AAATGATTCT | 1.01
68 | GTGAGCTCGT | 1.08
69 | TGCCTATAAG | 0.995
70 | AATGAAATTA | 0.97
71 | AGGCCGCT | 0.982
72 | GCATACTAGG | 1.05
73 | CACAAGTCAA | 1.06
74 | GTTACCTAAT | 1.01
75 | ATGAACGCAC | 2.12
76 | GCCAGCAACG | 1.02
77 | GGGCTGCTAA | 0.943
78 | AATCTTTACT | 1.02

Row | Sequence | switch fluorescence ratio
79 | TGCCCCGACT | 0.998
80 | TTCGCCCTTC | 0.955
81 | GACAAATGAC | 1.25
82 | ACGCGTCCTT | 1.01
83 | GGGGTAGCG | 0.97
84 | TCGGCCCTCG | 0.973
85 | AAAACGTGCG | 0.976
86 | ATTTGTACCT | 1.01
87 | GGCTAGTAAG | 1.01
88 | ACTATCCTGT | 1.03
89 | GGGGTTAGG | 1.01
90 | CAGTGCTAGG | 0.983
91 | GCGATTGCTC | 1.17
92 | AACACATGGT | 1.01
93 | GGTAAGTTA | 1.03
94 | CCAAGAACGG | 1.07
95 | ATAGTCGTAA | 1
96 | GCGCAGCCTG | 0.994
97 | TGCAGAATCA | 0.963
98 | CTAGTTGCTA | 0.953
99 | ACTTGGGAGA | 0.961
100 | ACCGGGCTTC | 0.995
101 | CTGGCCGCAT | 1.6
102 | GTAAAGTT | 0.97
103 | CGATCAACAG | 1.03
104 | CGCACAGGCA | 1.06

Row | Sequence | switch fluorescence ratio
105 | ATCATCGTTC | 0.996
106 | TCTGGGAGCC | 0.98
107 | GGAGTAAAGC | 1.09
108 | TATATACAAG | 1.01
109 | CTGGTGGTCA | 0.99
110 | GAAAGGTGAC | 1.07
111 | ATATCGGACC | 1.06
112 | AATAGTGCCA | 1.02
113 | TATAGGTACG | 1.08
114 | CTATAGTCTC | 0.996
115 | ATAATGCACC | 1.08
116 | GGGATTTAGC | 1.03
117 | ACTGGGCTCT | 0.947
118 | TGCAGGCAAC | 1.02
119 | TCCCGCGTC | 2.69
120 | CTTTGGTCAA | 1.05
121 | AGGGCGATC | 1.05
122 | CAGGTGAGAT | 1.52
123 | CAGTATGGAA | 0.936
124 | GACGGTACAG | 0.965
125 | ACTGATTGAC | 1.07
126 | TAAAGACTGG | 1.03
127 | CGCTAGATAA | 1.09
128 | ATTGCCACAG | 1.06
129 | GAGTGGCCTG | 0.918
130 | TGGGCGATTG | 1.01

Row | Sequence | switch fluorescence ratio
131 | CACTAATCGA | 1.03
132 | TTCTCTTAAA | 1.01
133 | AAAGTGGATT | 1
134 | CTATATGGTA | 1.01
135 | GGAGATCATG | 1.01
136 | TCAATGCGGT | 2.64
137 | ACGATGTGGC | 1.05
138 | GTTAGACTGG | 1.02
139 | AAGGGTCACA | 1.02
140 | CGGCCGCTTG | 3.71
141 | TGCTTTGAG | 1.01
142 | CAGATTATTC | 1.01
143 | AGGGTTAGAG | 1.01
144 | GTGCTTAGTC | 0.963
145 | GCACCAGGGC | 1.2
146 | ACTGGGGCGC | 0.972
147 | AGTGAATATT | 0.97
148 | GGCCTTACGC | 1.05
149 | CAACTCGGCG | 0.987
150 | CCCCTTTTCA | 1.03
151 | TCGTAGCC | 0.976
152 | TTGTGAGATA | 0.959
153 | TTATTAGAT | 1.03
154 | TGGGTACGGG | 0.955
155 | GTTCAGGGGT | 0.959
156 | GGCGAGGGA | 1.01

Row | Sequence | switch fluorescence ratio
157 | CGTGATAGAA | 0.968
158 | GGCATATCTG | 0.976
159 | AATTGGGTGT | 1.05
160 | TAAGGCGATT | 0.962
161 | CCACACGTGG | 0.97
162 | ACAGGCCCGA | 1.01
163 | GGGCATGGTC | 0.98
164 | TTCCTGATTA | 1.01
165 | ACAAGTCTCA | 1.01
166 | TAGCCGTCGG | 0.971
167 | TTCGCAATTT | 3.74
168 | GAGCTTAATA | 1.01
169 | TGTTGTGCGG | 1
170 | AGGTACAAGG | 1.02
171 | GCCGTAGGAT | 0.964
172 | TTATCGTGCA | 1
173 | TTGTCGTGGA | 0.99
174 | GGTGGGGG | 1.03
175 | CGGACACCAG | 1.01
176 | GCGCGGGAGA | 1.06
177 | GATAAAATAA | 1.02
178 | AGTGTGGTCC | 0.978
179 | GTTAGATTTA | 0.963
180 | CAGAAGTTCA | 1.04
181 | GTACATGCTG | 0.954
182 | CATGGCATAA | 1.08

Row | Sequence | switch fluorescence ratio
183 | TTTGTTAGCC | 1.02
184 | GATGTTGCGC | 0.992
185 | CGGCTGTGCG | 0.972
186 | AGCAAATTAA | 1.03
187 | TTTACAGAAG | 1.03
188 | GTATTGCGTG | 0.957
189 | TAGCGTAAGT | 1.02
190 | GGACTCCCG | 1.01
191 | CGTTGATCGG | 1.01
192 | AGTGAGGGGC | 0.966
193 | CCTTCTTAAT | 1.14
194 | GGAGTCAACC | 0.99
195 | CTCTGCAGCT | 2.68
196 | ATGTTTAACC | 0.999
197 | TTCAGCTAAG | 1.02
198 | CCAAGCTGGG | 1.05
199 | TTGAGGCTTT | 1.02
200 | TGTTCCATAG | 1.05
201 | TTGCCTATAT | 0.99
